Results published in US20200397913A1, “AXL-SPECIFIC ANTIBODY-DRUG CONJUGATES FOR CANCER TREATMENT” (GENMAB A/S, priority 2015, published 2020).

B1: IgG1-AXL-061: human IgG1,κ anti-AXL antibody, VH SEQ ID NO:143, VL SEQ ID NO:144; Ig1 domain binding (antibody, V domains shown)
VH: QVQLVQSGAEVKKPGASVKVSCKASGYAFTGYGISWVRQAPGQGLEWIGWISAYNGNTNYVQNLQDRVTMTTDTSTSTAYMELRSLRSDDTAVYYCARDHISMLRGIIIRNYWGQGTLVTVSS
VL: [skipping about 100 residues]
modifications: homo sapiens
B2: IgG1-AXL-061-vcMMAE: IgG1-AXL-061 (Ig1 binder) conjugated to vcMMAE (conjugate)
VH: B1 VH
VL: [skipping about 100 residues]

Legend:
[1] = biological target: T1, Gas6 binding to AXL on A431 cells (Homo sapiens, UniProt P30530); assay: Gas6 binding to A431 cells pre-incubated with AXL antibodies
T1 construct: endogenous in cells; host or cells: A431
Method: Alternatively, A431 cells were pre-incubated with 10 μg/mL AXL antibodies (15 minutes, 4° C.) to assess if the AXL ligand Gas6 could still bind in presence of AXL antibodies. […] After washing three times in PBS/0.1% BSA/0.02% azide, cells were incubated with mouse anti-Gas6 IgG2a (R&D Systems; cat no. MAB885) at 4° C. for 30 min. After washing three times in PBS/0.1% BSA/0.02% azide, cells were incubated with FITC-labelled goat anti-mouse IgG (Dako, Heverlee, Belgium; cat no. F049702) at 4° C. for 30 min in the dark. Next, cells were washed twice in PBS/0.1% BSA/0.02% azide, resuspended in 120 μL PBS/0.1% BSA/0.02% azide and analyzed on a FACS Cantoll (BD Biosciences).
(§1) Binding curves were analyzed using non-linear regression (sigmoidal dose-response with variable slope) using GraphPad Prism V5.04 software (GraphPad Software, San Diego, Calif., USA).
Therefore, binding of Gas6 to A431 cells that had been pre-incubated with 10 μg/mL AXL antibodies was tested as described in Example 2.

[2] = test system: MDA-MB-231 and Calu-1 cells; assay: Internalization of cell surface bound HuMab-AXL by flow cytometry; type: cell-based, human; conditions: 1 hour 4° C, then overnight 37° C versus 4° C
Method: Internalization of cell surface bound HuMab-AXL antibodies to MDA-MB-231 and Calu-1 cells (human lung carcinoma cell line; ATCC, catalognumber HTB-54) was evaluated by flow cytometry. 50,000 cells were seeded in 96-well tissue culture plates and allowed to attach for 6 hrs at 37° C. Plates were incubated at 4° C. for 30 minutes before incubation with serial dilutions of AXL-antibodies (final concentration range 0.0032-10 μg/mL) at 4° C. for 1 hour. Subsequently, the medium was replaced by tissue culture medium without antibody and cells were incubated overnight (16-18 hours) at 37° C. or 4° C. […] Finally, cells were washed twice in PBS/0.1% BSA/0.02% azide, resuspended in 120 μL PBS/0.1% BSA/0.02% azide and analyzed on a FACS Cantoll (BD Biosciences).
as §1

[3] = test system: LCLC-103H xenograft tumors; assay: Therapeutic LCLC-103H xenograft model; type: in vivo, SCID mice; conditions: Example 13: 3 mg/kg intraperitoneally
Method: 5×10^6 LCLC-103H (large cell lung carcinoma) tumor cells (obtained from Leibniz-Institut DSMZ-Deutsche Sammlung von Mikroorganismen and Zellkulturen GmbH (DSMZ)) in 200 μL PBS were injected subcutaneously in the right flank of female SCID mice. Starting 14-21 days after tumor cell inoculation, when the average tumor size was >100-200 mm^3 and distinct tumor growth was observed, a single injection with 1 mg/kg (20 μg/mouse) IgG1-AXL-vcMMAE antibodies (as described in Supplementary Example 1) or control (unconjugated IgG1-b12) was given intraperitoneally (100 μL/mouse). Tumor volume was determined at least two times per week. Tumor volumes (mm^3) were calculated from caliper (PLEXX) measurements as: 0.52×(length)×(width)^2.
Tumor induction was performed by subcutaneous injection of 5×10^6 A431 or LCLC-103H tumor cells (both obtained from Leibniz-Institut—Deutsche Sammlung von Mikroorganismen and Zellkulturen GmbH (DSMZ)) in 200 μL PBS in the right flank of female SCID mice. Treatment was started 14-21 days after tumor cell inoculation, when the average tumor size was >100-200 mm^3 and distinct tumor growth was observed. […] Tumor volume was determined at least two times per week. Tumor volumes (mm^3) were calculated from caliper (PLEXX) measurements as: 0.52×(length)×(width)2.

A431 tumors = assay: Therapeutic A431 xenograft model; type: in vivo, SCID mice; conditions: 3 mg/kg intraperitoneally, model produces high levels of Gas6
Method: Tumor induction was performed by subcutaneous injection of 5×10^6 A431 or LCLC-103H tumor cells (both obtained from Leibniz-Institut—Deutsche Sammlung von Mikroorganismen and Zellkulturen GmbH (DSMZ)) in 200 μL PBS in the right flank of female SCID mice. Treatment was started 14-21 days after tumor cell inoculation, when the average tumor size was >100-200 mm^3 and distinct tumor growth was observed. Mice received a single injection or a total of 4 biweekly intraperitoneal injections with IgG1-AXL-vcMMAE ADCs or control antibody (unconjugated IgG1-b12), as indicated. Tumor volume was determined at least two times per week. Tumor volumes (mm^3) were calculated from caliper (PLEXX) measurements as: 0.52×(length)×(width)2.

Molecule	binding of Gas6 to A431 cells pre-incubated with antibody ([1]; 10 μg/mL antibody, versus IgG1-b12 and medium controls)	Gas6 binding: Maximal binding in presence of AXL antibodies (% of binding in presence of control antibody) ([1]; pre-incubation with 10 μg/mL antibody, control antibody b12)	internalization of membrane-bound antibody [2]	anti-tumor activity [3]	anti-tumor activity (A431 tumors)
B1	largely reduced	22%	internalize		
B2				induced tumor regression	did not show anti-tumor activity
